Test results reported in the supplement of paper PMC10126150.
Sequences with one replicate were seen in a single cluster, so their values are uncertain.

Test system: ATP
Test: switch fluorescence ratio, 500 uM ATP over buffer (Cy3 cluster intensity, sum of 5 cycles each) (fold (ratio)); higher = stronger signal-on switching upon ATP binding; sequences stand for … in TCGTCGGCAGCGTCAGATGTGTATAAGAGACAGTTTTTTTTTTTTTTTTTTTTTTTTT…TC
Details: aptamer strand: ATP DNA aptamer (quencher-CACCTGGGGGAGTATTGCGGAGGAAGG + anchor), 100 nM annealed; ATP concentration: 500 uM; one replicate
Outline: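 Clusters carrying Cy3-labelled switching strands on a modified Illumina MiSeq flow-cell were annealed to 100 nM quencher-labelled ATP aptamer and imaged in selection buffer. They were imaged again after 15 min with 500 uM ATP at 22 °C, over five buffer/ATP cycles with NaOH stripping and re-annealing in between. For each cluster, the fluorescence ratio is the summed Cy3 intensity of the target cycles divided by that of the buffer cycles, averaged per switch-domain sequence. Clusters outside 100-1000 RFU were left out.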
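Further: ATP exposure 15 min at 22 °C before imaging.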

## GGTACCGTAA
  switch fluorescence ratio: 1.08

## CATTGAATGC
  switch fluorescence ratio: 1.08

## TAGTATGGTT
  switch fluorescence ratio: 0.996

## TTACATTCGC
  switch fluorescence ratio: 1.02

## TTTATAGATT
  switch fluorescence ratio: 1.04

## CGGGCGAACA
  switch fluorescence ratio: 0.975

## TAAAAGAAA
  switch fluorescence ratio: 0.999

## GTAGCACGGC
  switch fluorescence ratio: 1.2

## GGTCGTACAT
  switch fluorescence ratio: 0.95

## ATCCAGCTCA
  switch fluorescence ratio: 1

## TGGATCAGT
  switch fluorescence ratio: 1.04

## TACCCCTAAA
  switch fluorescence ratio: 1.05

## AGGTTTCC
  switch fluorescence ratio: 0.99

## CAGCACAAGG
  switch fluorescence ratio: 1.08

## ACGGATATTC
  switch fluorescence ratio: 1.07

## AAAGGACCAT
  switch fluorescence ratio: 1.12

## CACTACACGT
  switch fluorescence ratio: 1.34

## GTATGGCAGA
  switch fluorescence ratio: 0.987

## TCCATTACGG
  switch fluorescence ratio: 1.04

## ACTTTCCGAA
  switch fluorescence ratio: 1.14

## TTATCTCGAT
  switch fluorescence ratio: 0.997

## ATATACTCAA
  switch fluorescence ratio: 1.03

## ACGAACCGTC
  switch fluorescence ratio: 1.27

## TGTCATACCT
  switch fluorescence ratio: 1.31

## GAAAGAGGG
  switch fluorescence ratio: 0.976

## CTCAAGAAAC
  switch fluorescence ratio: 1.39

## TGTCGCACAT
  switch fluorescence ratio: 1.05

## GGTTCGCAC
  switch fluorescence ratio: 1.15

## GCCGTCAGGG
  switch fluorescence ratio: 1.01

## GGTCAAAGAC
  switch fluorescence ratio: 0.992

## GCTCCACGAG
  switch fluorescence ratio: 1.07

## GGCGTAATAA
  switch fluorescence ratio: 1.73

## CTCTGGTGAG
  switch fluorescence ratio: 0.969

## ACAAGCATTT
  switch fluorescence ratio: 1

## CGCGAATAGT
  switch fluorescence ratio: 1.2

## ACTTTAGGAG
  switch fluorescence ratio: 1.05

## TCGCCCAGAA
  switch fluorescence ratio: 0.982

## GCAGAATATC
  switch fluorescence ratio: 1.05

## CGGGTAGCTG
  switch fluorescence ratio: 1.04

## TTGTAAAATC
  switch fluorescence ratio: 0.994

## GAGGTGATGA
  switch fluorescence ratio: 1

## TACATTGACT
  switch fluorescence ratio: 1.14

## TGCCAGATGG
  switch fluorescence ratio: 1.04

## CTGTGCGACG
  switch fluorescence ratio: 1.05

## TGGAAGCATT
  switch fluorescence ratio: 0.964

## GGTGTCACCA
  switch fluorescence ratio: 1.04

## TGGTGGCAGG
  switch fluorescence ratio: 1.02

## AGTTCCTCCT
  switch fluorescence ratio: 1.75

## CTTGTCTTGA
  switch fluorescence ratio: 0.981

## GTTATTGGT
  switch fluorescence ratio: 0.991

## GAGAGGTTGG
  switch fluorescence ratio: 1.01

## CAATACTACA
  switch fluorescence ratio: 1.49

## GCACATAAGA
  switch fluorescence ratio: 1.01

## TGGTGAGCCG
  switch fluorescence ratio: 1.01

## ATCGTTCACA
  switch fluorescence ratio: 0.962

## AATGTGACGC
  switch fluorescence ratio: 1.03

## CTTGGTCTTA
  switch fluorescence ratio: 0.96

## TGGTACCTTC
  switch fluorescence ratio: 1.11

## GTCGCCTC
  switch fluorescence ratio: 1.05

## TATCTGGGAC
  switch fluorescence ratio: 1

## GTTCAACCAT
  switch fluorescence ratio: 1

## GCTCTTTTCT
  switch fluorescence ratio: 0.951

## AAGTGAAAAA
  switch fluorescence ratio: 1.02

## CAAAAACTA
  switch fluorescence ratio: 1.01

## TTATGGTTCT
  switch fluorescence ratio: 0.976

## TATAAATGCT
  switch fluorescence ratio: 0.982

## CGGTGTTTGT
  switch fluorescence ratio: 0.987

## GGGACGTACC
  switch fluorescence ratio: 1.18

## AAGCTAGAGT
  switch fluorescence ratio: 1

## ATTATAATGG
  switch fluorescence ratio: 0.963

## ATGCCGACAC
  switch fluorescence ratio: 1.02

## TCGGCGCACG
  switch fluorescence ratio: 0.967

## ATACCCGGGT
  switch fluorescence ratio: 1.02

## ATTTGCGTCG
  switch fluorescence ratio: 0.957

## CCAGGGATGA
  switch fluorescence ratio: 1.01

## GAGAGATTCA
  switch fluorescence ratio: 1.02

## TACGTAGCG
  switch fluorescence ratio: 1.07

## ACTAGTTGGA
  switch fluorescence ratio: 1.01

## ACTGGAATAA
  switch fluorescence ratio: 1.14

## GTGGAAGAAG
  switch fluorescence ratio: 0.942

## GCTGGGGTCC
  switch fluorescence ratio: 1.01

## AGGAGGCGT
  switch fluorescence ratio: 0.975

## CAGTATGGAG
  switch fluorescence ratio: 0.952

## AAAGGGATG
  switch fluorescence ratio: 0.973

## TGATGGTCGG
  switch fluorescence ratio: 0.949

## TGGCTACGTA
  switch fluorescence ratio: 0.963

## GTTACCACTT
  switch fluorescence ratio: 1.03

## CAGAGACGCA
  switch fluorescence ratio: 1.02

## CTGGTTGATA
  switch fluorescence ratio: 1.05

## TCGCCCTTAC
  switch fluorescence ratio: 3.74

## GTAGAGCATG
  switch fluorescence ratio: 1.02

## CCTGCAGT
  switch fluorescence ratio: 1.61

## GGGAGTCCAG
  switch fluorescence ratio: 1.43

## ACAAGACACC
  switch fluorescence ratio: 1.42

## GTAACCCGCT
  switch fluorescence ratio: 1.07

## ATCCAGAT
  switch fluorescence ratio: 1.03

## TTTTTGACGC
  switch fluorescence ratio: 0.98

## GCATTAATAT
  switch fluorescence ratio: 1.11

## TCTATATCTG
  switch fluorescence ratio: 1

## ATTCACAGCT
  switch fluorescence ratio: 1.04

## TATGATTGAC
  switch fluorescence ratio: 1.06

## TGGGTTGTTC
  switch fluorescence ratio: 1.05

## AATTAGAAGT
  switch fluorescence ratio: 0.989

## CGTAGATAGG
  switch fluorescence ratio: 1.03

## CTAATTCACG
  switch fluorescence ratio: 1.07

## ATTCGTAACA
  switch fluorescence ratio: 0.953

## ACCGAGAAAC
  switch fluorescence ratio: 1.02

## CTTTCCGTGG
  switch fluorescence ratio: 1.03

## CCCCCAGGTC
  switch fluorescence ratio: 2.38

## TCTTTACCTT
  switch fluorescence ratio: 1.03

## TCCCGCCAAA
  switch fluorescence ratio: 1.74

## TTCACAAGTG
  switch fluorescence ratio: 0.977

## TAAGTTTA
  switch fluorescence ratio: 1.03

## GGTAGTAAA
  switch fluorescence ratio: 1

## TTAGTATCTG
  switch fluorescence ratio: 1.01

## AAGGAGCAGG
  switch fluorescence ratio: 1.14

## GGTGGGGCGG
  switch fluorescence ratio: 0.952

## CCAGTATGAG
  switch fluorescence ratio: 1.05

## GTCTATAATC
  switch fluorescence ratio: 0.988

## GGAGCACT
  switch fluorescence ratio: 1.49

## TAGGGTCGAA
  switch fluorescence ratio: 0.989

## AGATTGTCGT
  switch fluorescence ratio: 0.996

## CCTGTGTGGG
  switch fluorescence ratio: 1.03

## GCGAGAGCGA
  switch fluorescence ratio: 1.07

## GGTCAGGTGG
  switch fluorescence ratio: 0.992

## GCTTTGAAGT
  switch fluorescence ratio: 0.945

## TTTGGGGGT
  switch fluorescence ratio: 0.996

## TAGATTAGTA
  switch fluorescence ratio: 0.99

## CTGCGCCAGC
  switch fluorescence ratio: 0.997

## TCGTCATTTG
  switch fluorescence ratio: 0.988

## CAGCCCGTTA
  switch fluorescence ratio: 0.997

## TACTGGTCGT
  switch fluorescence ratio: 1.03

## CAAAGCATG
  switch fluorescence ratio: 1.05

## CCGTATTTCG
  switch fluorescence ratio: 0.999

## GGCGCGGGCC
  switch fluorescence ratio: 1

## AACCGGGTGT
  switch fluorescence ratio: 2.16

## TCTGCCCGGT
  switch fluorescence ratio: 1.1

## TTCTTAATGG
  switch fluorescence ratio: 1.05

## ACCCGGGACC
  switch fluorescence ratio: 1.04

## TTTGATTGG
  switch fluorescence ratio: 0.971

## GAATTGCATG
  switch fluorescence ratio: 0.999

## TTCCCAATGT
  switch fluorescence ratio: 4.37

## TCGGGTCTTA
  switch fluorescence ratio: 0.973

## TTTACCCCCC
  switch fluorescence ratio: 1.3

## GTAACGAGAT
  switch fluorescence ratio: 1.07

## TAGCTAAAAG
  switch fluorescence ratio: 1

## TGCTTGGGCT
  switch fluorescence ratio: 1.01

## CGCGTGGTAG
  switch fluorescence ratio: 1.06

## ATATAGCTGC
  switch fluorescence ratio: 1.01

## TCGCTGCAGG
  switch fluorescence ratio: 1.01

## GTAGGAAATG
  switch fluorescence ratio: 0.997

## CGGGAGAGTG
  switch fluorescence ratio: 0.986

## CGCGGACTCG
  switch fluorescence ratio: 1.29

## GGGTTCTTGG
  switch fluorescence ratio: 0.955

## AAGGGCGAGA
  switch fluorescence ratio: 0.981

## CGAGCGGTG
  switch fluorescence ratio: 1.01

## AAGAGATGTT
  switch fluorescence ratio: 0.955

## CTGCGAGACA
  switch fluorescence ratio: 1.14

## TTATGATGTT
  switch fluorescence ratio: 1.01

## TTAAGGTAAC
  switch fluorescence ratio: 1.03

## TAGTATATT
  switch fluorescence ratio: 1.03

## TTGGTCCTGT
  switch fluorescence ratio: 1.02

## CTGTGTCCAT
  switch fluorescence ratio: 0.975

## TAGACAAAAG
  switch fluorescence ratio: 1.04

## GTGATGCGAA
  switch fluorescence ratio: 1.04

## TGGTATTCCT
  switch fluorescence ratio: 1.03

## AAAAATAGGC
  switch fluorescence ratio: 1.15

## AGGATTTCGC
  switch fluorescence ratio: 1.03

## GTAGTTTCAG
  switch fluorescence ratio: 0.955

## GGGCATACTC
  switch fluorescence ratio: 1.05

## TGGCCTATAA
  switch fluorescence ratio: 1.02

## GGGAGTTGC
  switch fluorescence ratio: 0.99

## CGAGTAGCCC
  switch fluorescence ratio: 0.971

## GCAGTCTTCC
  switch fluorescence ratio: 1

## ACTGCTGGGG
  switch fluorescence ratio: 1.04

## GCGGGTAGGA
  switch fluorescence ratio: 0.984

## GAAAGGAAC
  switch fluorescence ratio: 0.998

## CTGGATTATA
  switch fluorescence ratio: 0.979

## ATATGACTTC
  switch fluorescence ratio: 0.998

## GCTTCCACGA
  switch fluorescence ratio: 1.15

## TGGTTATAGG
  switch fluorescence ratio: 0.982

## ATCGTCTGGT
  switch fluorescence ratio: 1.02

## GAATGTGTTG
  switch fluorescence ratio: 0.925

## GCGACGACGC
  switch fluorescence ratio: 1.63

## ATAGAAAGA
  switch fluorescence ratio: 1.03

## TTGCGGTCTA
  switch fluorescence ratio: 1.03

## GGGCCGCGGG
  switch fluorescence ratio: 1.07

## CCCTAGTAAG
  switch fluorescence ratio: 1.04

## TAAGAGGTGC
  switch fluorescence ratio: 1.04

## TAATGGGAT
  switch fluorescence ratio: 0.96

## TCCCGTTTCA
  switch fluorescence ratio: 0.963

## GGCTGCCGGT
  switch fluorescence ratio: 0.974

## AAGGTAGCT
  switch fluorescence ratio: 0.973

## ATAAGGAGG
  switch fluorescence ratio: 0.957

## CGACACGGTG
  switch fluorescence ratio: 0.992

## TGCAAAAGTG
  switch fluorescence ratio: 0.97

## TGGGTTGAA
  switch fluorescence ratio: 0.982

## CACGGGGGCT
  switch fluorescence ratio: 1.02

## GGGTTGAT
  switch fluorescence ratio: 0.987

## ATGATATAGT
  switch fluorescence ratio: 1

## GAAGCATGCA
  switch fluorescence ratio: 1.01
